The record followed here is PubChem BioAssay AID1508623 (National Center for Advancing Translational Sciences (NCATS), 2021).

In all, about 48,000 compounds went through this assay and about 450 (0.94%) were called active. Another 19% or so got no clear call; they are omitted. Calls come from the whole dose curve; as a rule, active = well fitted inhibition curve with a large enough effect; inconclusive = small, poorly fitted or top-dose-only effect; inactive = no such curve, though single readings can be large or run the other way. This is one part of the list.
Potency is the fitted concentration of half-maximal effect.

This assay can be described thus: Primary qHTS for Identification of Small Molecule Inhibitors of Huntingtin Promoter Activity. Note: nearly all actives have a fitted effect of over 50% in size. To be noted: HEK293 HTT promoter firefly luciferase reporter (activity 0% = vehicle and -100% = no light), 24 h; series mostly up to 57.5 µM; activity change, negative = inhibition: at the top concentration. In outline: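 Quantitative HTS used concentration series of up to 57.5 uM final on HEK293 luciferase reporter cells, 24 h at 37 degrees C. Readout was Dual-Glo firefly luminescence.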
Background: Quantitative high-throughput screening tests each substance at several concentrations.
With `Cc1cc(C)c(Nc2nc3ccccc3n3c(C)nnc23)c(C)c1`, the “activity change, negative = inhibition” value is inactive: -7.11%.
`COc1ccccc1OCCn1c(NC(=O)c2ccccc2Cl)nc2ccccc21`: the “activity change, negative = inhibition” value was inactive: -31.7%.
Same read-out and setting: to `Cc1ccc(NC(=O)C(=O)NCC(c2cccnc2)N2CCN(Cc3ccccc3)CC2)cc1C` (configuration not stated) belongs inactive: -27.4%; to `COc1cccc(CNC(=O)C2CCC(CNS(=O)(=O)c3ccc4c(c3)CCCC(=O)N4)CC2)c1` (configuration not stated), inactive: -1.65%; to `Cc1ccc(NC(=O)CSc2nnc3scc(-c4ccc(Cl)cc4)n23)cc1`, inactive: -26%.
With `CCN(CC)CCCNc1oc(/C=C/c2ccc(OC)c(OC)c2)nc1C#N`, the “activity change, negative = inhibition” value was inactive: -17.1%.
Consider `COc1ccc(NC(=O)Cn2cc(S(=O)(=O)N3CCN(c4ccccc4F)CC3)c3ccccc3c2=O)cc1Cl`, for which the “activity change, negative = inhibition” value is inactive: -19.5%.
As for `CCOc1ccc(-c2cc(C(=O)N3CCN(c4cc(Cl)ccc4C)CC3)c3ccccc3n2)cc1`, the “activity change, negative = inhibition” value was inactive: -16.1%.
As for `CNc1c(NC(=O)c2ccc(OC)c(OC)c2)c(=O)oc2ccccc12`, the “activity change, negative = inhibition” value was inactive: 6.21%.
The same measure, in the same setting: the figure for `CN(C)c1nc(Cc2ccc(NC(=O)c3ccc(C(F)(F)F)cc3)cc2)nc(N(C)C)c1CC(=O)O` is inactive: 0.739%.
Turning to `Cc1cc2c(cc1S(=O)(=O)CCC(=O)N1CCC(C)CC1)OCC(=O)N2`, the “activity change, negative = inhibition” value was inactive: -5.82%.
Same read-out and setting: to `CCc1ccc(C(=O)c2cn(CC(=O)Nc3ccc4c(c3)OCO4)c3ccc(CC)cc3c2=O)cc1` belongs inactive: -17.8%; to `Cc1cc(C)cc(NC(=O)NCCc2c(C)nn(C)c2C)c1`, inactive: -20.5%; to `CCC(Cn1nnc2ccccc2c1=O)NC(=O)Nc1cc(C)cc(C)c1` (configuration not stated), inactive: -10.7%.
Take `CC(C)C(=O)Nc1nnc2n1CCS2`: the “activity change, negative = inhibition” value was inactive: -4.16%.
The same measure, in the same setting: the figure for `Cc1nc(N2CCCC2)c2c(C(=O)N3CCN(c4ccccc4)CC3)c(C)oc2n1` is inactive: -3.9%.
On the same count and under the same terms, to `Cc1cc2c(n1-c1ccc(C(=O)NCCc3ccc(Cl)cc3)cc1)CCCC2` belongs inactive: 14.7%; to `CCOc1cc2sc(N3CCC(C(=O)Nc4ccc(CC)cc4)CC3)nc2cc1Br`, inactive: 101%.
With `CC(=O)N1CCCc2cc(S(=O)(=O)N3CCCC(C(=O)N4CCN(c5cccc(Cl)c5)CC4)C3)ccc21` (configuration not stated), the Potency is active: 7.08 µM.
On to `Cc1ccc(C)c(CSc2nnc3[nH]c(=O)cc(C)n23)c1`, for which the “activity change, negative = inhibition” value is inactive: -8.22%.
On the same count and under the same terms, to `COc1ccc(C)cc1NC(=O)c1noc2c1CSc1ccccc1-2` belongs inactive: -14.1%; to `COc1ccc(C2C(C(=O)Nc3ccccc3)=C(C)Nc3c(C(=O)Nc4ccccc4)cnn32)cc1` (configuration not stated), inactive: -0.159%; to `COCCNC(=O)CCC(=O)NNc1nc2ccccc2c2nc(C)nn12`, inactive: -13.2%.
Consider `Cc1ccc(C)c(N2CCN(C(=O)c3cn(CC(C)C)c(=O)c4c3c3ccccc3n4C)CC2)c1`, for which the “activity change, negative = inhibition” value was inactive: -11.6%.
`COc1ccc(Br)cc1C1C(C(=O)Nc2ccc(C)cc2C)=C(C)Nc2ncnn21` (configuration not stated): the “activity change, negative = inhibition” value is inactive: -12.5%.
Still for that read-out and setting: to `Cc1ccc(NC(=O)C2(c3cccs3)CCOCC2)cc1Cl` belongs inactive: -10.9%; to `Cc1ccc(C)c(CSc2nc(-c3ccccc3F)nc3c2Cc2c(CO)cnc(C)c2O3)c1`, inactive: -11.1%.
